The campaign covered roughly 220,000 compounds. About 5,700 (2.6%) were called active. The shares of active, inactive and inconclusive entries below differ from those in the screen. Calls come from the whole dose curve; as a rule, active = well fitted inhibition curve with a large enough effect; inconclusive = small, poorly fitted or top-dose-only effect; inactive = no such curve, though single readings can be large or run the other way. Potencies of inconclusive entries are doubtful fits and often do not repeat.
target: Lysine-specific demethylase 5B (Homo sapiens) (UniProt Q9UGL1); test: Primary screen for KDM5B Histone Demethylases FDH-coupled qHTS; details: FDH-coupled NADH fluorescence (FDH is formaldehyde dehydrogenase); activity change, negative = inhibition: at 57.7 µM (top of the series); note: nearly all actives have a fitted effect of over 70% in size; for activity change, negative = inhibition: 0% is about no effect
Chain of UniProt Q9UGL1 (Q9UGL1 whole entry, looked up): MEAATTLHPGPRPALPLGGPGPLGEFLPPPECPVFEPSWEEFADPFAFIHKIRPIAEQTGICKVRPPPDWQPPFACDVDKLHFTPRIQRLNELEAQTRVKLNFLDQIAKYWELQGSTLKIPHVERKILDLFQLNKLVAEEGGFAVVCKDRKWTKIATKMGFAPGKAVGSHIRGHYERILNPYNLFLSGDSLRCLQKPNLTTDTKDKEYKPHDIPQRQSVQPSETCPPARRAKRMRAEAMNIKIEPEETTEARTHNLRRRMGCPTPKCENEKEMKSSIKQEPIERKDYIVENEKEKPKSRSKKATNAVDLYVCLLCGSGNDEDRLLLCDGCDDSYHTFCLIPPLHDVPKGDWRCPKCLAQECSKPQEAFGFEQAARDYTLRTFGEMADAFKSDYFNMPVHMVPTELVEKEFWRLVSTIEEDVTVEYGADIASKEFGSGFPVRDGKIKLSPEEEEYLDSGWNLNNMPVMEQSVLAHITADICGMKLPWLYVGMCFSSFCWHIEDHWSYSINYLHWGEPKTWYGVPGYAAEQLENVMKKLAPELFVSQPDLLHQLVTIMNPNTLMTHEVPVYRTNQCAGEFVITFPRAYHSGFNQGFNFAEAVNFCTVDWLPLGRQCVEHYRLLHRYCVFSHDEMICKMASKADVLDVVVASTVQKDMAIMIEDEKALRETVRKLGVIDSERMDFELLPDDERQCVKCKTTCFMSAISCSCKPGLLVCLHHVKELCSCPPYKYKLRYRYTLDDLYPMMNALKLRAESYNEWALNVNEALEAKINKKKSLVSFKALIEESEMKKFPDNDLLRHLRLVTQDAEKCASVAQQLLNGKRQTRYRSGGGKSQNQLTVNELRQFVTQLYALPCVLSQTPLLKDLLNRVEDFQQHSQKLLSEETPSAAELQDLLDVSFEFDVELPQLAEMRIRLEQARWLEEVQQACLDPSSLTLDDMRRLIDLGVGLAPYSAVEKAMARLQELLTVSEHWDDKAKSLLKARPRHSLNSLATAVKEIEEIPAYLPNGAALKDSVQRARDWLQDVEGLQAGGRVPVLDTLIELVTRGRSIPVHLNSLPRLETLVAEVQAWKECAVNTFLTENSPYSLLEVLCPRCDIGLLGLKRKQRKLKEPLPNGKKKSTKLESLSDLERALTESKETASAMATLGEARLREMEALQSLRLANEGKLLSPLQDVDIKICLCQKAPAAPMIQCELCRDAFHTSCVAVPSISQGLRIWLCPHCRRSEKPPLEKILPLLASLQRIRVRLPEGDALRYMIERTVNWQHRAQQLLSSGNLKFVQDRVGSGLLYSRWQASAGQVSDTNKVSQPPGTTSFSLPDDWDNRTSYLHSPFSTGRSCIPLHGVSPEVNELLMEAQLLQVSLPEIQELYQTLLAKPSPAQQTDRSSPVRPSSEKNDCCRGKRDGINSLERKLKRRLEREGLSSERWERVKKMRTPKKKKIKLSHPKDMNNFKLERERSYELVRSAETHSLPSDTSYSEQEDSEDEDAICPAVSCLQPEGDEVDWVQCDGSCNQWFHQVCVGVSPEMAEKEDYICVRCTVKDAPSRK
Method in brief: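 KDM5BΔAP (200 nM final) in 50 mM HEPES pH 7.5, 0.01% Tween-20 was preincubated 10 min at RT with compound over a concentration range. Substrate mix (H3K4me3 12.5 µM, α-KG 25 µM, Fe²⁺, ascorbate, NAD⁺, FDH) was added, and NADH fluorescence change over 30 min gave dose-response curves.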
Potency is the fitted concentration of half-maximal effect; tags give direction and shape of the fitted curve.

| Structure (SMILES) | Potency | activity change, negative = inhibition |
| --- | --- | --- |
| Cc1[nH]c2c(C(C)C)cccc2c1CCN | inconclusive: 15.8 µM [inhibitor, partial curve, poor fit] | – |
| Cn1nc(C(=O)NCC2(C)CCOCC2)c2ccccc21 | inconclusive: 25.1 µM [inhibitor, single point] | – |
| CN1CCN(c2csc3ccc(F)cc3c2=O)CC1 | inconclusive: 17.8 µM [inhibitor, partial curve, poor fit] | – |
| CCC(CC)c1cc([C@H]2CN3CC[C@H]2C[C@@H]3CNC(=O)CCCC(=O)O)nc(-c2ccncc2)n1 | – | inactive: 21.7% |
| CSc1ccc(C(c2c(O)c3ccccc3oc2=O)c2c(C)n(C)n(-c3ccccc3)c2=O)cc1 (configuration not stated) | inconclusive: 31.6 µM [inhibitor, partial curve, poor fit] | – |
| Cc1nc(-c2ccco2)cc([C@H]2CN3CC[C@H]2C[C@@H]3CNC(=O)c2ccccc2)n1 | inconclusive: 28.2 µM [inhibitor, single point] | – |
| O[C@H]1[C@H](NCc2ccccn2)[C@H]2CO[C@H](O2)[C@@H]1N1CCCC1 | inconclusive: 31.6 µM [inhibitor, partial curve, poor fit] | – |
| COc1cccc(CCNCc2ccc(Br)cc2)c1 | – | inactive: -44.3% |
| Cn1cc(CN2CCN(C(=O)Cc3ccsc3)CC2)ccc1=O | inconclusive: 12.6 µM [inhibitor, partial curve] | – |
| OCC1CN(C2CCC2)CC12CCN(Cc1cccnc1)CC2 (configuration not stated) | inconclusive: 15.8 µM [inhibitor, partial curve, poor fit] | – |
| CCOc1ccc(-n2c(/C=C/c3ccccc3)nc3ccccc3c2=O)cc1 | inconclusive: 15.8 µM [inhibitor, partial curve, poor fit] | – |
| CC1=NOC2(CCCN(CC3CCCCC3)C2)C1 (configuration not stated) | – | inactive: 11.8% [at 149 µM] |
| CC(Cc1ccc(Cl)cc1)NC(=O)CCCNC(=O)C1CC1 (configuration not stated) | – | inactive: 22.3% |
| COc1ccc2c(c1)C1(CCN(C(=O)COc3ccc(Cl)cc3)C1)C(=O)N2C (configuration not stated) | – | inactive: -12.6% |
| COc1cc2c(cc1OCc1ccncc1)NC(=O)C21CCN(C(C)=O)CC1 | inconclusive: 11.2 µM [inhibitor, partial curve, poor fit] | – |
| Cc1ccsc1CNC(C)C(O)c1ccc(O)cc1 (configuration not stated) | inconclusive: 39.8 µM [inhibitor, single point] | – |
| CC(C)NC(=O)OC[C@H]1C[C@@H]2CCN1C[C@@H]2c1cc(C2CCCC2)nc(-c2ccncc2)n1 | inconclusive: 20 µM [inhibitor, partial curve, poor fit] | – |
| O=C(c1ccc(F)cc1)N1C[C@@H]2C[C@H](C1)c1c(C3CCCCC3)ccc(=O)n1C2 | – | inactive: -7.29% [at 86.2 µM] |
| Cc1nc(-c2ccccc2Br)cc([C@H]2CN3CC[C@H]2C[C@@H]3CNC(=O)c2ccco2)n1 | – | inactive: 3.38% |
| N#CCC1CN2CCC1C(c1ccccc1)C2 (configuration not stated) | – | inactive: 17.8% |
| Cc1nc(-c2ccco2)cc([C@H]2CN3CC[C@H]2C[C@@H]3CNS(C)(=O)=O)n1 | inconclusive: 31.6 µM [inhibitor, single point] | – |
| Cn1nc(C(=O)NCC2CCOCC2)c2ccccc21 | inconclusive: 25.1 µM [inhibitor, single point] | – |
| Cc1ccccc1N1C(=O)NC(=O)/C(=C/c2ccc(N3CCOCC3)o2)C1=O | inconclusive: 35.5 µM [inhibitor, single point] | – |

| Structure (SMILES) | Potency | activity change, negative = inhibition |
| --- | --- | --- |
| O=C(O)C(=O)N1C[C@@H]2C[C@H](C1)c1ccc(NS(=O)(=O)c3ccccc3)c(=O)n1C2 | inconclusive: 39.8 µM [inhibitor, partial curve, poor fit] | – |
| CC/C(=N\NC(=S)Nc1ccccc1)c1c(O)[nH]c(=O)[nH]c1=O | inconclusive: 22.4 µM [inhibitor, partial curve, poor fit] | – |
| CN(Cc1ccccc1)C[C@H]1CN2CC[C@H]1C[C@@H]2CNC(=O)c1ccc(C(F)(F)F)cc1 | – | inactive: -19.6% |
| O=C1Nc2ccccc2CC12CCN(Cc1ccccn1)C2 (configuration not stated) | active: 31.6 µM | – |
| CC(C)(C)CN1CC2ON=C(C(=O)O)C2C1 (configuration not stated) | inconclusive: 141 µM [inhibitor, partial curve] | – |
| CC(=O)Nc1ccc(S(=O)(=O)NC[C@H]2C[C@@H]3CCN2C[C@@H]3c2cc(-c3ccc(N(C)C)cc3)nc(C)n2)cc1 | active: 20 µM | – |
| Nc1c(C(=O)Nc2ccc(OC(F)(F)F)cc2)sc2nc3c(cc12)N1CCC3CC1 | inconclusive: 35.5 µM [inhibitor, partial curve, poor fit] | – |
| Cc1nc(-c2ccccc2)cc([C@H]2CN3CC[C@H]2C[C@@H]3CNC2CCN(C)CC2)n1 | inconclusive: 44.7 µM [inhibitor, single point] | – |
| Cc1cccc(N2C(=O)NC(=O)/C(=C\c3ccc(N4CCOCC4)cc3)C2=O)c1 | inconclusive: 28.2 µM [inhibitor, partial curve, poor fit] | – |
| O=c1c2ccccc2nc(CNc2ccccc2)n1-c1ccccc1 | inconclusive: 17.8 µM [inhibitor, single point] | – |
| CCc1ccc(CNCCc2c[nH]c3ccccc23)cc1 | inconclusive: 15.8 µM [inhibitor, partial curve, poor fit] | – |
| CC(C)N1CCN(Cc2ccco2)CC1 | inconclusive: 10 µM [inhibitor, partial curve, poor fit] | – |
| CCCNC(=O)OC[C@H]1C[C@@H]2CCN1C[C@@H]2c1cc(-c2ccccc2OC)nc(C)n1 | active: 35.5 µM | – |
| CCCNC1CNC1 | inconclusive: 316 µM [inhibitor, partial curve, poor fit] | – |
| O=C1Nc2ccccc2C12CCN(Cc1ccc(C(F)(F)F)cc1)CC2 | – | inactive: 1.01% [at 115 µM] |
| Cn1c(O)c(C(=Nc2ccc(F)cc2)c2ccccc2Cl)c(=O)n(C)c1=O | – | inactive: -7.94% |
| O=C1CC(c2ccccc2Br)c2c(c3ccccc3oc2=O)O1 (configuration not stated) | inconclusive: 28.2 µM [inhibitor, partial curve, poor fit] | – |
| CC12CC[C@H]3[C@@H](CCC4(O)CC(O[N+](=O)[O-])CCC34CO[N+](=O)[O-])C1(O)CCC2C1=CC(=O)OC1 (some centres not stated) | inconclusive: 39.8 µM [inhibitor, single point] | – |
| N#Cc1ccc(CN2CCC3(CC2)C(=O)Nc2ccccc23)cc1 | – | inactive: 6.26% [at 115 µM] |
| O=C1CO[C@H]2CN(Cc3ccccn3)C[C@H]2N1Cc1ccccn1 | inconclusive: 12.6 µM [inhibitor, partial curve, poor fit] | – |
| O=C1NCCCCCN(Cc2ccccn2)[C@H]2CCC[C@@H]12 | inconclusive: 15.8 µM [inhibitor, partial curve, poor fit] | – |
| CC1OC(OC2CCC3(C=O)[C@H]4CCC5(C)C(C6=CC(=O)OC6)CCC5(O)[C@@H]4CCC3(O)C2)CC(O)C1O (some centres not stated) | – | inactive: 20.1% |
| CCOc1ccc(-n2c(O)c(N=Nc3c(C)n(C)n(-c4ccccc4)c3=O)c(=O)[nH]c2=O)cc1 | inconclusive: 3.16 µM [inhibitor, full curve, poor fit] | – |

| Structure (SMILES) | Potency | activity change, negative = inhibition |
| --- | --- | --- |
| Cn1cccc1CN1CCCC2(CC(c3ccccn3)=NO2)C1 (configuration not stated) | – | inactive: -5.34% [at 86.2 µM] |
| Cc1c(CC(=O)N2CCN(C(c3ccccc3)c3ccccc3)CC2)c(=O)oc2cc(O)ccc12 | inconclusive: 20 µM [inhibitor, partial curve, poor fit] | – |
| Cc1nc(-c2ccc(N(C)C)cc2)cc([C@H]2CN3CC[C@H]2C[C@@H]3CNC(=O)C2CC2)n1 | inconclusive: 35.5 µM [inhibitor, partial curve, poor fit] | – |
| O=C(NC1CCCCC1)OC[C@H]1C[C@@H]2CCN1C[C@@H]2c1cc(C2CCCC2)nc(-c2ccncc2)n1 | inconclusive: 28.2 µM [inhibitor, partial curve, poor fit] | – |
| NCCc1noc(C2CC2)n1 | – | inactive: -12.1% |
| COCCNC(=O)[C@H]1CN2CCC1C[C@@H]2Cn1cc(-c2ccc(OC)cc2)nn1 (some centres not stated) | – | inactive: -19.6% [at 86.2 µM] |
| CCCCCCC(=O)N/N=C/c1c(O)n(CCc2ccccc2)c(=O)[nH]c1=O | inconclusive: 39.8 µM [inhibitor, partial curve, poor fit] | – |
| COc1ccc(CCNCc2cccc(F)c2)cc1 | inconclusive: 28.2 µM [inhibitor, single point] | – |
| Cc1ccc(C2SCC(=O)Nc3c2c(C)nn3-c2ccccc2)cc1 (configuration not stated) | inconclusive: 17.8 µM [inhibitor, partial curve, poor fit] | – |
| CNc1ccc2nc3ccccc3[n+](C)c2c1 | inconclusive: 28.2 µM [inhibitor, single point] | – |
| FC(F)(F)CN1C2CCC1CN(c1cnc3ccccc3c1)C2 | active: 100 µM | – |
| C1CC2CCC1CNC2 | – | inactive: 20.2% |
| Cc1cccc(C(=O)N2CCC(=O)CC2)c1 | – | inactive: -0.361% |
| COCC1CN(C)CC12CCN(C(=O)c1cncc(C)c1)CC2 (configuration not stated) | inconclusive: 31.6 µM [inhibitor, partial curve, poor fit] | – |
| CN(C1CCNCC1)C1CCOCC1 | – | inactive: 7.15% |
| C#C[C@H]1CN2CC[C@H]1C[C@@H]2CNC(=O)Nc1cc(OC)cc(OC)c1 | – | inactive: -7.28% [at 86.2 µM] |
| C=CCNC(=O)c1c(N)n(Cc2ccccc2)c2nc3ccccc3nc12 | inconclusive: 20 µM [inhibitor, partial curve, poor fit] | – |
| Cn1nc(C2CCCCC2)cc1[C@H]1CN2CC[C@H]1C[C@@H]2CNS(=O)(=O)c1ccccc1 | – | inactive: 26.7% |
| CCN1CCN(C(=O)Cc2c[nH]c3ccccc23)CC1 | – | inactive: -14.5% |
| COc1ccc(S(=O)(=O)N2C[C@@H]3C[C@H](C2)c2c(-c4cccs4)ccc(=O)n2C3)cc1 | inconclusive: 22.4 µM [inhibitor, partial curve] | – |
| C=CCSc1nc2c(c(-c3ccsc3)c1C#N)CN(C)CC2 | inconclusive: 35.5 µM [inhibitor, partial curve, poor fit] | – |

From PubChem BioAssay AID1347165 (National Center for Advancing Translational Sciences (NCATS), 2019)
